# Experimental data as given in paper PMC4336329 (PLoS ONE, 2015).
# Among all 310,000 compounds or so, about 14,000 (4.5%) showed an effect of 50% or more. Effects have a minus sign here. The list shows a part of the results.
# Target: human ether-à-go-go-related gene (hERG) potassium channel (human, UniProt Q12809)
# Assay: primary screen, population patch clamp on CHO cells stably expressing hERG
# 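Note: peak tail current of the secondary pulse compared with the same well before compound.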
# Chain of human ether-à-go-go-related gene (hERG) potassium channel (Q12809 whole entry, looked up): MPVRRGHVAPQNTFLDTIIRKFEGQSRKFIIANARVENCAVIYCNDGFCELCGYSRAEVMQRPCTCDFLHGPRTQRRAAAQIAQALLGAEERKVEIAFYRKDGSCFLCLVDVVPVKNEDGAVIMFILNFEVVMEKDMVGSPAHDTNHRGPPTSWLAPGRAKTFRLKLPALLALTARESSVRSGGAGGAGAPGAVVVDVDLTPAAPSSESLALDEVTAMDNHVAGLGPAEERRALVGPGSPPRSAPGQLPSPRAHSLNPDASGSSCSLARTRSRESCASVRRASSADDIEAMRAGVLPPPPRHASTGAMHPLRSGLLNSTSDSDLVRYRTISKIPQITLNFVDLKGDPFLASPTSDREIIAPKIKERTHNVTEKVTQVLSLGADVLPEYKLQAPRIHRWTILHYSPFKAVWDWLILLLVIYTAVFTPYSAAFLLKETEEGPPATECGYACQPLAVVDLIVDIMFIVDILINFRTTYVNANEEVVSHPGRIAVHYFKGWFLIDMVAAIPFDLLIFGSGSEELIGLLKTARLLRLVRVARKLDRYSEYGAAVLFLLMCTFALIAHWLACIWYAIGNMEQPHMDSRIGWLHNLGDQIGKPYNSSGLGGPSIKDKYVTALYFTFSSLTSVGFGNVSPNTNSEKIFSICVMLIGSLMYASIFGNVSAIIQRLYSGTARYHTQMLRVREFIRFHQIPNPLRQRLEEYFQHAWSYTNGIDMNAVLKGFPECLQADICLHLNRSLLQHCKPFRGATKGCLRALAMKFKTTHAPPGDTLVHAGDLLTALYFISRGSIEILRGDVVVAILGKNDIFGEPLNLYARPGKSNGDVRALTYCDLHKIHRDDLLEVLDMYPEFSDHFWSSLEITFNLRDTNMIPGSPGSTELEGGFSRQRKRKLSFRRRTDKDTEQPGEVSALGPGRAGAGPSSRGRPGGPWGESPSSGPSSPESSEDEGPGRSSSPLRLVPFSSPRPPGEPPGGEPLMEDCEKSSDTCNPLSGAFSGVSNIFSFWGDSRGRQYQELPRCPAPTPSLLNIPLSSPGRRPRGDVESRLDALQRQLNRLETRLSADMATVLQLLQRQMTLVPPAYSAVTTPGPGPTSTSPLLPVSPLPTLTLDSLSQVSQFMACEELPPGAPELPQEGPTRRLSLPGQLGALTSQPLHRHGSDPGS
row,Structure (SMILES),"hERG current change (%, negative = inhibition) at 10uM"
1,CC(=O)Nc1ccc(NC(=O)c2ccc3c(c2)C(=O)N(c2ccccc2C)C3=O)cc1,9.23%
2,O=C1C(Cc2ccccc2)SC(=Nc2ccccc2)N1c1ccccc1 (centres unmarked),16.6%
3,O=C(Nc1ccc(-c2noc(COc3ccccc3Cl)n2)cc1)c1ccco1,17.6%
4,Cc1cn(S(=O)(=O)c2ccc(Br)c3ccccc23)cn1,6.78%
5,COCCCNC(=O)c1cn(-c2cccc(OC)c2)c(=O)c2ccccc12,18.1%
6,CC(=O)O[C@@H]1C[C@H]2C(C)(C)C(=O)C=C[C@]2(C)[C@H]2CC[C@@]3(C)[C@H](c4ccoc4)OC(=O)[C@H]4O[C@]43[C@@]21C,-43.1%
7,Cc1c(Cl)cccc1NC(=O)CCCn1cnc([N+](=O)[O-])n1,-2.37%
8,CCN(CC)C(=O)COc1cc(C)cc2oc(=O)cc(-c3ccccc3)c12,-34.5%
9,Cc1ccc(CNCCCSc2ncccn2)cc1,-15.5%
10,Cc1cc(-c2ccc(/C=N/n3cnnc3)o2)c(C)c([N+](=O)[O-])c1,4.61%
11,CC(=O)Nc1ccc(NS(=O)(=O)c2ccc(OC(C)C(=O)N3CCOCC3)cc2)cc1 (centres unmarked),-9.39%
12,COc1cccc(N2[C@@H](CC(C)=O)c3cc(C(F)(F)F)ccc3S2(=O)=O)c1,1.46%
13,Cc1ccccc1-c1cc(C(=O)n2cccn2)c2cc(Cl)ccc2n1,3.41%
14,Cc1ccc(/C=N/NC(=O)c2nc3nc(C)cc(C)n3n2)cc1,-12.6%
15,O=C(Nc1ccn(Cc2cccc3ccccc23)n1)c1cccnc1,0.177%
16,CS(=O)(=O)N(CC(=O)NCC1CCCO1)c1cccc(Cl)c1 (centres unmarked),17.3%
17,C/C(CC(=O)Nc1cccc(Cl)c1)=N\NC(=O)Cc1ccc(Cl)cc1,-5.29%
18,COCCNC(=O)C(=O)NCC1OCCN1S(=O)(=O)c1ccc(F)cc1 (centres unmarked),0.707%
19,COc1cc(NC(=O)C2CC(=O)NC3=C2C(=O)CC(C)(C)C3)c(OC)cc1Cl (centres unmarked),-29.3%
20,Cc1cccc(C(=O)NCC(c2ccco2)N2CCc3ccccc32)c1 (centres unmarked),-25.6%
21,Cc1nc2nc[nH]n2c(=O)c1CC(=O)O,1.37%
22,COc1cc(NC(=O)Cn2cnc(S(=O)(=O)N3CCCC3)c2)cc(OC)c1OC,15.1%

row,Structure (SMILES),"hERG current change (%, negative = inhibition) at 10uM"
1,CCOc1cc(CNn2cnnc2)cc(Cl)c1OCC(=O)NC(C)(C)C,5.17%
2,COc1cc(Br)ccc1NC(=O)c1ccccc1-c1ccccc1C(=O)O,14%
3,Cc1cc(Cl)ccc1OCCCC(=O)OCC(N)=O,-3.29%
4,O=c1c(Cl)c(N2CCCCC2)cnn1-c1nc2ccccc2[nH]1,-47.8%
5,C/C(=N\NC(=O)c1nnn(-c2nonc2N)c1C(C)C)c1cc(C)sc1C,10.2%
6,Cc1ccc(S(=O)(=O)N(C)c2ccc(C(=O)NCC3(N(C)C)CCCCC3)cc2)cc1,-65.4%
7,COc1ccccc1C(=O)Nc1ccon1,-4.26%
8,COCCn1c(-c2ccc(Cl)cc2Cl)nc2c(c(=O)c3ccccc3n2C)c1=O,-8.66%
9,O=C(CN(CC1CCCO1)S(=O)(=O)c1ccc(S(=O)(=O)NC2CC2)cc1)Nc1ccccc1 (centres unmarked),-41.9%
10,CSc1ccccc1OCc1cc(C(=O)N2CCN(c3ncccn3)CC2)no1,-19.6%
11,Cc1cccc(Nc2ncnc3c2cnn3C)c1,-28.1%
12,CC(=O)COc1c(-c2ccco2)oc2ccccc2c1=O,4.55%
13,COC(=O)c1cccc(NC(=O)c2nn(C)c(=O)c3ccccc23)c1,-14.5%
14,CCC1CCCCN1CCCNC(=O)C1CCN(S(=O)(=O)N2CCCCC2)CC1 (centres unmarked),-6.14%
15,CC(NCc1ccc(Cl)cc1)C(O)c1ccccc1.Cl (centres unmarked),0.613%
16,CCCCNS(=O)(=O)c1cc2c3c(c1)CCN3C(=O)CC2,4.12%
17,COc1ccc(N2CCN(C(=O)c3cccc(Br)c3)CC2)c([N+](=O)[O-])c1,-87.1%
18,Cn1c(=O)oc2cc(S(=O)(=O)NCCC(=O)N3CCN(c4ccccc4)CC3)ccc21,7.95%
19,O=C(Nc1ccc(S(=O)(=O)Nc2ncccn2)cc1)C1=NN(c2ccccc2)C(=O)CC1,0.606%
20,Cc1ccc(/C=N/NC(=O)CSc2nnc(-c3ccc(Cl)cc3)n2-c2ccc(Cl)cc2)o1,-9.79%
21,CCCCn1c(SCC(=O)OCC)nc2c(sc(=S)n2-c2ccccc2OC)c1=O,-5.13%
22,Cc1cc(C)n2cc(CSCC(=O)O)nc2n1,19.6%
